# Measured values: paper PMC4336329 (PLoS ONE, 2015)
# Hit rate of the full screen: of about 310,000 compounds, about 14,000 (4.5%) showed an effect of 50% or more. Effects have a minus sign here. The list shows a part of the results.
# Biological target: human ether-à-go-go-related gene (hERG) potassium channel (human, UniProt Q12809)
# Test: primary screen, population patch clamp on CHO cells stably expressing hERG
# 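Further: peak tail current of the secondary pulse compared with the same well before compound.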
# Sequence of human ether-à-go-go-related gene (hERG) potassium channel (Q12809 whole entry, looked up): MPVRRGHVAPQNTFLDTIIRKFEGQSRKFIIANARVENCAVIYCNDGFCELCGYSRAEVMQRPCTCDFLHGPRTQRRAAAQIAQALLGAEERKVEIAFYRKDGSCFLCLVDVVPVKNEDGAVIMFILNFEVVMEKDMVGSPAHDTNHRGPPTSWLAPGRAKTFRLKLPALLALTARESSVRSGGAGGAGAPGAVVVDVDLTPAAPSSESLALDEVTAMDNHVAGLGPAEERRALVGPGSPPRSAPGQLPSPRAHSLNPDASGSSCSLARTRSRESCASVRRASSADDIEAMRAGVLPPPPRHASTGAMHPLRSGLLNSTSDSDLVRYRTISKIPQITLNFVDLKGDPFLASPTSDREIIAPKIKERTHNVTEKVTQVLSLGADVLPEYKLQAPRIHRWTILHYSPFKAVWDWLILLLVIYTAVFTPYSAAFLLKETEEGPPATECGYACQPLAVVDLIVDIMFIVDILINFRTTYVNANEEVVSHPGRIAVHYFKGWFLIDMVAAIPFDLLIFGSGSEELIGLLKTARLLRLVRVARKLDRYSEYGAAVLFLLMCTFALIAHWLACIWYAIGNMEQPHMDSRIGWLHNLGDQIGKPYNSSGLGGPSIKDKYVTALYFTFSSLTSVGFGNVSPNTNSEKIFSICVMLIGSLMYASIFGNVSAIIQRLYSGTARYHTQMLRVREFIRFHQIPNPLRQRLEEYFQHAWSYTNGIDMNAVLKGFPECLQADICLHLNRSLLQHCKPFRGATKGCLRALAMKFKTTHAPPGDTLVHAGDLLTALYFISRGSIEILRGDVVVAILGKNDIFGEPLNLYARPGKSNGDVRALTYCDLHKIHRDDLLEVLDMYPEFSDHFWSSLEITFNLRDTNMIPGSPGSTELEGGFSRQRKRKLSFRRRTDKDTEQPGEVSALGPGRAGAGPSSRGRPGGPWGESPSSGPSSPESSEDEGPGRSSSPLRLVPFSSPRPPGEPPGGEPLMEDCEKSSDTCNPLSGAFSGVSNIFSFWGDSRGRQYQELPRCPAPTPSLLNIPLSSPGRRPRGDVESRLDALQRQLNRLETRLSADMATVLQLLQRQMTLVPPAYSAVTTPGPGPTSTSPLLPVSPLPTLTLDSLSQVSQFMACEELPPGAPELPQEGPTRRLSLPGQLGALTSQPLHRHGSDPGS
row,Compound,"hERG current change (%, negative = inhibition) at 10uM"
1,CCOc1ccc(-c2csc(NC(=O)CSCC(=O)O)n2)c2ccccc12,0.0856%
2,CCCCC(CC)CNC(=O)/C=C/c1ccc(F)cc1 (stereo not drawn),-10.8%
3,CC(=O)c1nn(-c2ccccc2)cc1C(=O)c1ccc(Br)cc1,30%
4,COc1ccccc1OCC(=O)N1CCC2(CC1)CC(=O)c1ccccc1O2,-40.2%
5,O=C(COC(=O)C1(c2ccc(F)cc2)CCCC1)N1CCOCC1,3.09%
6,N#Cc1ccccc1OCCCNC1CCCC1.O=C(O)C(=O)O,-11.5%
7,CCc1ccccc1-n1c(SCC(=O)c2c(N)n(C3CC3)c(=O)[nH]c2=O)nnc1N1CCOCC1,8.13%
8,Cc1cc(OCC(=O)Nc2ccccn2)c2c(C)c(C)c(=O)oc2c1,15.9%
9,O=C(Nc1cc(C(F)(F)F)ccc1N1CCOCC1)c1ccc(Cl)nc1,-20%
10,Cc1cccc(C)c1OCC(=O)N(Cc1cccs1)C1CCS(=O)(=O)C1 (stereo not drawn),-8.04%
11,COc1cc(SC)ccc1C(=O)N(C)CC(=O)Nc1cccc2ccccc12,-4.21%
12,C/C(=N\NS(=O)(=O)c1ccc(Cl)cc1)c1ccc(NC(=O)c2ccco2)cc1,14.5%
13,CCc1cc2cc(C)cc(C)c2nc1SCC(=O)NNC(=O)c1ccco1,6.63%
14,Cc1nc2ccccc2c2oc(C(=O)N3CCCC(C)C3)cc12 (stereo not drawn),-24.5%
15,COc1ccc(NC(=O)c2cc(S(=O)(=O)N3CCc4ccccc43)cn2C)c(OC)c1,-6.34%
16,CC(=O)Nc1ccccc1OC(C)C(=O)N1CCC(C)CC1 (stereo not drawn),19.4%
17,COc1ccc(C(=O)Nc2ccc(Nc3ccccc3)cc2)cc1[N+](=O)[O-],-37%
18,NC(=O)C1CCN(C(=O)/C=C/c2cccc(Br)c2)CC1,1.61%
19,COCCn1c(SCC(=O)Nc2ccc(C(C)=O)cc2)nc2c([nH]c3ccccc32)c1=O,1.97%
20,COC(=O)c1ccc(CNC(=O)c2cc3ccccc3oc2=O)cc1,27.9%
21,Cc1ccc(-c2cnc(SCCNC(=O)c3ccco3)[nH]2)cc1,-24.9%
22,COc1ccc(-c2nc(-c3ccc(NC(=O)c4ccncc4)cc3)no2)cc1OC,7.54%
23,O=C(C1CCC(CNS(=O)(=O)c2cccc3cccnc23)CC1)N1CCc2ccccc21 (stereo not drawn),-12.5%

row,Compound,"hERG current change (%, negative = inhibition) at 10uM"
1,O=C1CSc2ccc(C(=O)NCCC3=CCCCC3)cc2N1,19.5%
2,COc1cc(-c2nnco2)cc(OC)c1OC,16.3%
3,O=C(NCc1ccco1)C(c1ccncc1)N(CCC1=CCCCC1)C(=O)Cn1nnc2ccccc21 (stereo not drawn),-7.38%
4,COc1cccc(-c2nnn(CC(=O)NC3CCCC3)n2)c1OC,9.7%
5,COC(=O)CC(NC(=S)NC(=O)c1ccccc1)c1ccc(Br)cc1 (stereo not drawn),6.8%
6,COc1ccccc1NC(=O)CCNC(=O)c1ccc(C)cc1,10%
7,CCOC(=O)C1CCN(C(=O)CNC(=O)c2nn(-c3ccc(OC)cc3)c(=O)c3ccccc23)CC1,-9.73%
8,NS(=O)(=O)c1ccc(CCNC(=O)CSc2ccc(Cl)cc2Cl)cc1,-16.4%
9,C=CCc1ccc(OCCN2CCc3ccccc3C2)c(OC)c1.O=C(O)C(=O)O,-67.6%
10,O=C(CN1CCCCC1)Nc1ccc(S(=O)(=O)NC2CCCCC2)cc1,-43%
11,CCCCCCCCSc1nnc(/N=C/N(C)C)s1,9.23%
12,O=C(CSCCO)Nc1ccc(C23CC4CC(CC(C4)C2)C3)cc1,11.2%
13,Cn1c(-c2ccc(F)cc2)cnc1SCC(=O)NNC(=O)Cc1ccccc1,6.24%
14,CCc1ccc(CNC(=O)C2CCCN(S(=O)(=O)N3CC(C)CC(C)C3)C2)cc1 (stereo not drawn),25.7%
15,CN(C(=O)CSc1nc2c(cnn2-c2ccccc2)c(=O)[nH]1)C1CCS(=O)(=O)C1 (stereo not drawn),16.1%
16,COC(=O)c1sccc1NC(=O)Nc1ccccc1Cl,11.1%
17,Cc1c(CC(=O)NCC(=O)O)c(=O)oc2cc3occ(-c4ccccc4)c3cc12,12.6%
18,CCOc1ccc(C2/C(=C(/O)c3ccc4c(c3)CC(C)O4)C(=O)C(=O)N2CCCn2ccnc2)cc1OCC (stereo not drawn),25%
19,CCC(=O)NC(=S)Nc1cccc(Cl)c1N1CCCC1,11.1%
20,COc1ccc(N2C(=O)C(CC(=O)Nc3ccccc3)N(Cc3ccc4c(c3)OCO4)C2=O)cc1 (stereo not drawn),12.1%
21,CCOc1ccc(/C=N/OCC(=O)NCc2ccco2)cc1,-12.9%
22,C=CCn1c(SCC(=O)Nc2ccc(N3CCOCC3)cc2)nnc1-c1ccncc1,-17.4%
23,O=S1(=O)CCN(OCc2ccc(F)cc2Cl)CC1,34.4%

row,Compound,"hERG current change (%, negative = inhibition) at 10uM"
1,Cc1cc(=O)c(C(=O)O)nn1-c1cccc(C(F)(F)F)c1,-74.6%
2,CC(=O)NCCC(=O)N1CCCC(N(C)CCc2ccccc2)C1 (stereo not drawn),-26.7%
3,O=C(Cn1nnc2c(sc3nc4c(c(-c5ccccc5)c32)CCC4)c1=O)c1ccccc1,25.9%
4,c1nc2nc3c(c(N4CCOCC4)n2n1)CCCC3,-12.1%
5,Cc1cc2cc(CCNC(=O)c3cccc([N+](=O)[O-])c3)c(=O)[nH]c2cc1C,-47.1%
6,CCOc1ccc(N=Cc2c(O)n(Cc3ccccc3)c(=S)[nH]c2=O)cc1,10.5%
7,O=[N+]([O-])c1ccc(OCCCCCN2CCOCC2)cc1,-58.6%
8,COc1cc(/C=C2/C(=N)N3N=C(CC(=O)N4CCOCC4)SC3=NC2=O)ccc1OC(C)c1ccccc1 (stereo not drawn),11.7%
9,CC1CCCCC1NC(=O)Cn1nnc2ccccc2c1=O (stereo not drawn),8.43%
10,CCC(=O)c1ccc(OCC(=O)OCC(=O)c2cc(C)n(CC3CCCO3)c2C)cc1 (stereo not drawn),-42.6%
11,CCc1ccc(CN(C)C(=O)c2cc(COc3ccc(OC)cc3Cl)on2)nc1,-19.7%
12,O=C(CSc1nccn1-c1ccccc1)c1ccc(Cl)cc1,-2.04%
13,C(=C\c1cccc2ccccc12)/c1nnc(-c2cccs2)o1,59.7%
14,O=C(N/N=C/c1ccncc1)c1sc2ccccc2c1Cl,7.72%
15,COCCCNC(c1ccccc1)c1ccncc1.Cl (stereo not drawn),10.4%
16,CC1C(c2ccccc2)C(C#N)(C#N)C2(C#N)C(=O)NC1(N)C2C (stereo not drawn),-3.25%
17,O=C(CN(C(=O)CCC(=O)Nc1nccs1)c1ccc2c(c1)OCO2)NCC1CCCO1 (stereo not drawn),9.85%
18,O=C1CCCN1CCCNS(=O)(=O)c1ccc(Br)s1,9.72%
19,COc1ccc(NC(=O)c2c(Nc3ccccc3)sc(C(=O)c3ccc(F)cc3)c2N)cc1,-3.94%
20,O=C(c1ccc(NC(=S)NCc2ccco2)cc1)N1CCCCC1,-6.26%
21,O=C(O)COc1ccccc1O,4.38%
22,Cc1nnc(SCC(=O)N(C)C2CCCCC2)s1,15.2%
23,Cc1c(C(=O)N2CCCCC2)c(S(=O)(=O)N(C)Cc2ccccc2)c(C)n1C,2.66%

row,Compound,"hERG current change (%, negative = inhibition) at 10uM"
1,O=C(c1ccc(F)cc1F)N1CCN(c2n[nH]c(=O)[nH]c2=O)CC1,9.72%
2,CCN1CCN(CCCNC(=O)c2cc3c(s2)-c2ccccc2OC3)CC1,-66.7%
3,Cc1ccc(OCC(O)Cn2c(NCCc3ccccc3)nc3c2c(=O)[nH]c(=O)n3C)cc1 (stereo not drawn),-2.46%
4,CCCCOc1ccc(C(=O)N2CC(C)OC(C)C2)cc1 (stereo not drawn),-5.8%
5,COc1ccc(S(=O)(=O)NCc2ccccn2)cc1,13.7%
6,O=C1NC(c2ccc(Cl)cc2Cl)Oc2ccccc21 (stereo not drawn),11.6%
7,Cc1cc(C)c2sc(NC(=O)C3CC3)nc2c1,-12.1%
8,COc1cc(C)c(C(C)C)cc1S(=O)(=O)N1CCN(C)CC1,-3.93%
9,Cc1ccc(-n2nc3ccc(N)cc3n2)c(C)c1,23.9%
10,OCCN1CCN(c2cc(C(F)(F)F)nc3ccccc23)CC1,-8.62%
11,CCNC(=S)N(Cc1ccc2c(c1)OCO2)C1CC(=O)N(c2ccc(OC)cc2)C1=O (stereo not drawn),4.43%
12,COc1ccc2cc(C(C)C(=O)N3CCC(C)CC3)ccc2c1 (stereo not drawn),-71.9%
13,CNC(=O)C1CCC(=O)N1Cc1ccc(C)cc1 (stereo not drawn),11%
14,CC(=O)N(C1=NCCCS1)c1ccc(Cl)cc1,17.8%
15,COc1ccc(Cl)cc1NC(=O)CC(C)c1ccccc1 (stereo not drawn),-1.98%
16,O=C(Cc1c(O)c2ccccc2oc1=O)c1ccc(C(F)(F)F)cc1,16.7%
17,O=C(COC(=O)c1ccccc1NCCO)NCCc1ccccc1,-2.39%
18,Cc1[nH]c2ccc(C(=O)O)cc2c1C,10.8%
19,COc1ccccc1NS(=O)(=O)c1cccc(NC(=O)c2ccc3ccccc3n2)c1,3.05%
20,O=C(NCC12CC3CC(CC(C3)C1)C2)c1nc2ncccn2n1,-49.8%
21,CC1CCc2c(C(=O)Nc3ccccn3)csc2C1 (stereo not drawn),-9.72%
